The other results are listed elsewhere or left out.
System: T1, Caupolican (Caup) homeodomain DNA-binding domain
T1 sequence: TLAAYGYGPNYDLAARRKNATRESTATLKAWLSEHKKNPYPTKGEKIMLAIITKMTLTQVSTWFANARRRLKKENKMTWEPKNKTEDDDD
Experiment: PBM E-score (8-mer, recovered from the published 9-mer minima) (E-score (dimensionless, -0.5 to 0.5)); Drosophila protein; higher = stronger relative binding preference, active = 0.31 or more
Procedure, shortened: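 Caup's homeodomain DNA-binding domain (residues 214-303) was made by in vitro transcription and translation and applied at 100 nM to custom-designed protein binding microarrays. Each value is an enrichment score that gives relative binding preference for a short DNA word, with higher meaning stronger. The 8-mer values were recovered from published 9-mer scores, each of which was the minimum of its two constituent 8-mer scores. A cutoff of 0.31 marks candidate sites.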

| Sequence | PBM E-score |
| --- | --- |
| AGAAATCG | inactive: 0.00457 |
| GACTCATA | inactive: 0.0435 |
| CTGATACC | inactive: 0.163 |
| GTCCAGCA | inactive: -0.0366 |
| AGTCTCGA | inactive: -0.00595 |
| CTTCTCCC | inactive: -0.201 |
| CGGTGCTC | inactive: -0.149 |
| CACTCACG | inactive: -0.0531 |
| ACATACTG | inactive: 0.245 |
| CAGGCCCG | inactive: -0.295 |
| AACGGAAA | inactive: -0.0287 |
| ATAATACG | inactive: 0.142 |
| CTTGGAGA | inactive: -0.0308 |
| CCTAATCG | inactive: 0.0782 |
| CTTTTGAA | inactive: -0.0687 |
| CGCGAAAA | inactive: -0.0881 |
| ACTAACAC | inactive: 0.279 |
| AGTTAAGC | inactive: 0.0239 |
| AACGCATC | inactive: -0.0164 |
| AAAGATAG | inactive: -0.0157 |
| CTAATGAA | inactive: -0.00561 |
| AAGTCTCA | inactive: -0.0571 |
| GAGACTAA | inactive: 0.0224 |
| CTAGTCAG | inactive: 0.0696 |
| GCCGCGGA | inactive: -0.221 |

| Sequence | PBM E-score |
| --- | --- |
| GCGGGTCA | inactive: -0.0841 |
| AGCCGTTA | inactive: -0.0603 |
| CGGGCAGC | inactive: -0.219 |
| CACCCGCG | inactive: -0.124 |
| CGGATCCG | inactive: -0.166 |
| GGCCCTAA | inactive: -0.168 |
| AGATGGTC | inactive: -0.0504 |
| CAGAGTCA | inactive: -0.0248 |
| TATTCCCA | inactive: 0.0129 |
| AACTACGG | inactive: 0.0675 |
| CGATCTTC | inactive: -0.103 |
| CAGCCCAG | inactive: -0.167 |
| AGGAGGTC | inactive: -0.142 |
| AACGCTCT | inactive: -0.0982 |
| CCCCGTTA | inactive: -0.12 |
| AAATTTGA | inactive: 0.0791 |
| CTTACAAG | active: 0.343 |
| GTACTGAC | inactive: 0.0859 |
| GCGATTCC | inactive: -0.126 |
| ACATACCT | ≥ 0.303 |
| CCCTCTAC | inactive: -0.103 |
| AATGATTC | inactive: 0.129 |
| AGCCCGCA | inactive: -0.167 |
| ACCTGAGA | inactive: -0.0651 |
| TCGGAGCA | inactive: -0.0994 |

| Sequence | PBM E-score |
| --- | --- |
| CCGAACCA | inactive: -0.153 |
| AAATGCCG | inactive: -0.0646 |
| AAAAGGAC | inactive: 0.0342 |
| AACCACTG | inactive: 0.113 |
| ACCGCAGT | ≥ -0.0174 |
| GAGCCCGA | inactive: -0.0794 |
| ACCGACCC | inactive: -0.184 |
| CTCCGCCC | inactive: -0.311 |
| CCTTCGTC | inactive: -0.0621 |
| GCAGAGTA | inactive: 0.0006 |
| GAGTATTA | inactive: 0.146 |
| AATAGCGG | inactive: -0.027 |
| AGCGTAGC | inactive: -0.111 |
| GAGATTGC | inactive: -0.125 |
| AAGCTGAC | inactive: -0.0149 |
| CCGGCATC | inactive: -0.155 |
| CCTGTGAC | inactive: 0.0838 |
| ATTGAAGG | inactive: -0.0219 |
| CAAACGGC | inactive: -0.215 |
| AAGAGTAA | inactive: 0.146 |
| AACCGTAT | inactive: -0.00421 |
| ATTCCTCG | inactive: 0.011 |
| CTATAGTC | inactive: 0.0377 |
| CAACACCG | inactive: 0.0695 |
| ATGGGTAA | inactive: 0.0789 |

| Sequence | PBM E-score |
| --- | --- |
| GTGGCAAC | inactive: -0.00326 |
| CTTACTCC | inactive: 0.0174 |
| ACTCCCCA | ≥ -0.0709 |
| CGTAATCA | inactive: 0.192 |
| CCGCCCCA | inactive: -0.153 |
| AGTGTCTA | inactive: 0.163 |
| ACTTCGGA | ≥ 0.0559 |
| AGAAAGCG | inactive: -0.111 |
| CCCTATGC | inactive: -0.0629 |
| AGGCGACT | inactive: -0.195 |
| CCTAAGGA | inactive: -0.0669 |
| TCTCTAAA | inactive: -0.0641 |
| GCGGCGCC | inactive: -0.193 |
| CAACCGAG | inactive: -0.116 |
| ATTGTTCG | inactive: 0.213 |
| GCACGCCA | inactive: -0.261 |
| GCTCGAAA | inactive: -0.135 |
| ATCTCCTG | inactive: 0.0228 |
| CCCACCGC | inactive: -0.257 |
| GACCTCAA | inactive: 0.0301 |
| CAGCGAAG | inactive: -0.0941 |
| CGAACAAA | inactive: 0.157 |
| TATTCGCA | ≥ 0.0752 |
| GTATCGAA | inactive: 0.116 |
| CTTTTCGA | inactive: 0.0578 |

| Sequence | PBM E-score |
| --- | --- |
| GCATGGTA | inactive: 0.166 |
| AAAGAACT | inactive: 0.0182 |
| CTTCACGA | inactive: -0.0899 |
| AGTATCGC | inactive: -0.0141 |
| ATTCAGGA | inactive: 0.0111 |
| ATAGAGGC | inactive: -0.0401 |
| CCATATGA | inactive: -0.0127 |
| ACCATCTC | inactive: -0.0446 |
| CCCTCACA | inactive: -0.0459 |
| TCCAGAGA | inactive: -0.105 |
| CCGATACC | inactive: -0.0961 |
| TCAATAAA | inactive: 0.109 |
| CTTTTGGA | inactive: -0.0829 |
| AGAGGACC | inactive: -0.18 |
| GGTTTTGA | inactive: 0.0383 |
| GGTTCAGA | inactive: -0.0796 |
| AGTGCGAT | inactive: -0.0996 |
| TCTGCCCA | inactive: -0.188 |
| ACCACCGA | inactive: -0.0808 |
| CGACAAAA | inactive: 0.126 |
| CTGGACAA | inactive: 0.124 |
| CAACCCAG | inactive: -0.0708 |
| CGCATTAA | inactive: 0.0572 |
| AACCTTGG | inactive: -0.0417 |
| CCTCCTGC | inactive: -0.184 |

| Sequence | PBM E-score |
| --- | --- |
| GCAGAGAC | inactive: -0.18 |
| GAGTACGC | inactive: -0.0783 |
| TTGAGCAA | inactive: 0.0766 |
| AAGCCCCG | inactive: -0.151 |
| GACTCAGA | inactive: -0.101 |
| AATTTGAC | inactive: 0.131 |
| CAGACCAC | inactive: -0.0536 |
| TACCGAGA | inactive: -0.0256 |
| CCTAGCGA | inactive: -0.173 |
| ATTATAAA | inactive: 0.0925 |
| GAGGTTGA | inactive: -0.0621 |
| ACTGCATC | inactive: 0.0148 |
| CGGTTAAA | inactive: -0.0624 |
| GTGGCCAC | ≥ -0.0189 |
| GACGGTGC | inactive: -0.184 |
| AGCGTTGA | inactive: -0.0449 |
| GAGGCAAA | inactive: -0.0558 |
| AAGACGAG | inactive: 0.0135 |
| ATGTCACG | active: 0.367 |
| CGATGATC | inactive: 0.0274 |
| ACTCGCGG | inactive: -0.178 |
| AGGGAGGC | inactive: -0.266 |
| AAGCCAGT | inactive: -0.0375 |
| AGTCGATG | inactive: 0.0887 |
| TTTATAAA | inactive: 0.00384 |

| Sequence | PBM E-score |
| --- | --- |
| ACTGGAAC | inactive: 0.0633 |
| ACGATAAC | inactive: 0.195 |
| ACTACACT | inactive: 0.242 |
| ATCGCTCG | inactive: -0.0768 |
| AATCCCTG | inactive: -0.0218 |
| GCAGGGTA | inactive: -0.0187 |
| TGGACACA | inactive: 0.199 |
| ATGAGGTG | inactive: 0.0779 |
| CCTTCTAG | inactive: -0.136 |
| CTGTCTGC | inactive: -0.053 |
| AGGCTAGA | inactive: -0.142 |
| ACTAGGCT | inactive: -0.0507 |
| CACGCACC | inactive: -0.0151 |
| ACCAGTAC | inactive: 0.116 |
| ACGGTTGG | inactive: -0.0648 |
| CGACCCCA | inactive: -0.195 |
| CTCAACCA | inactive: -0.0732 |
| CGATAGCA | inactive: -0.0109 |
| CTCATCAA | inactive: 0.0222 |
| GATATAGA | inactive: 0.0663 |
| CATACGGC | inactive: -0.0538 |
| AGGGCGCC | inactive: -0.263 |
| ATTCGCTA | inactive: 0.0651 |
| AATCATCC | inactive: 0.0542 |
| AAACCGTA | inactive: -0.00995 |

| Sequence | PBM E-score |
| --- | --- |
| CAGGCTTA | inactive: -0.128 |
| TCCGTAGA | inactive: -0.0927 |
| TAAACCTA | inactive: 0.104 |
| AGCGAACC | inactive: -0.0416 |
| AGGTCACT | inactive: -0.0981 |
| ACGGTAGG | inactive: -0.165 |
| AGTGGAAC | inactive: -0.00196 |
| CTGGGTAC | inactive: -0.0716 |
| CGGCATTA | inactive: -0.0155 |
| CCCAGCGG | inactive: -0.214 |
| ATTGGGCC | inactive: -0.12 |
| AACCACGG | inactive: -0.0658 |
| ATATAATC | inactive: 0.19 |
| GCATGGCC | inactive: -0.134 |
| TCGTACGA | ≥ 0.14 |
| GCCTTCCC | inactive: -0.233 |
| CGAACACC | inactive: 0.12 |
| CATAGTTC | inactive: 0.044 |
| CAATGGGG | inactive: -0.17 |
| CTGGGGGA | inactive: -0.298 |
| CCGCTCTA | inactive: -0.0386 |
| AGGAGGAC | inactive: -0.0909 |
| AACAAAAT | inactive: 0.209 |
| CAGGCTCC | inactive: -0.187 |
| AACCATCC | inactive: -0.042 |

| Sequence | PBM E-score |
| --- | --- |
| AACCTACC | inactive: -0.0822 |
| AATACGAG | inactive: 0.118 |
| AATGAACG | ≥ 0.166 |
| AAAGCTGT | inactive: 0.0337 |
| GCCAATAA | inactive: 0.0616 |
| CTTCTTAC | inactive: -0.081 |
| CCCGGCCC | inactive: -0.324 |
| TATAAAGA | inactive: 0.0619 |
| ACTAAGTC | inactive: 0.0128 |
| ACTATCGC | inactive: 0.0186 |
| GCGGGGCC | inactive: -0.3 |
| ACAGTCCG | inactive: 0.0105 |
| CGTATTAA | inactive: 0.0874 |
| ACCCTATG | inactive: 0.0592 |
| AGCTAGGG | inactive: -0.157 |
| ACTCTCGA | inactive: -0.0149 |
| CAGCCCAC | inactive: -0.188 |
| AATTGTGG | inactive: 0.0524 |
| ACAGGTCG | inactive: 0.025 |
| AACCAACC | inactive: 0.0365 |
| ATAGTTAC | inactive: 0.256 |
| CTACACTA | inactive: 0.201 |

Source: the supplement of paper PMC3724861
